The values that follow come from the supplement of paper PMC11417369.

± gives the standard deviation of the averaged measurements. This is one part of the list.

For the assay, the system named is PfAP2-G AP2 domain (GST-tagged). Kind of assay: gcPBM binding intensity (ln(normalized median fluorescence intensity)); higher = stronger DNA binding. In short, it runs like this:
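DNA-binding domains from P. falciparum, fused to GST and produced in E. coli, were put on an Agilent 4 × 180k double-stranded probe array for 1 h in 1× PBS holding 1% milk, 0.2 mg/ml BSA, 0.5% salmon testes DNA and 0.03% Triton X-100. Probes were primer-extended, 36 bp long and drawn from intergenic genomic regions, with negative controls included. After Alexa488 anti-GST antibody detection and a 488 nm scan, binding intensity was set as the highest Masliner-normalised natural-log median intensity across replicate spots of either probe orientation.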
As to TTTATTTATGTGTGGGTGCATATACGTATGATGTAT, the “gcPBM binding intensity (ln)” value came to 10.6 ± 0.49.
For “AATACCCATATCTTCACACATACATAATAAATTATA [CACACA_site5367]” the value was 10.1 ± 0.3; for “AGCAACTCAATATATATAAGAATTGTAATATAATAT [GTGCAC_negctrl_site429]”, 9.47 ± 0.28; for “ATACAATACAAAAACACACACAAAAAAAGAAAAGGA [CACACA_site2156]”, 10 ± 0.11.
Consider “GTCGTATAATTTTCAGTGCAATATTTGAATAAATGG [GTGCAC_site9404]”, for which the “gcPBM binding intensity (ln)” value came out at 10.1 ± 0.18.
“ATTTATTAATTACCATGTATAAAAAATTATATAATA [CACACA_negctrl_site581]”: the “gcPBM binding intensity (ln)” value stood at 9.87 ± 0.16.
Consider “ATATATTTATATATTTGTACATATAATATCTTCTTT [XGTACX_site8504]”, for which the “gcPBM binding intensity (ln)” value came to 10.7 ± 0.45.
Turning to “ACACATAATATGTGTAGTACTTTTTCTTTAACATTA [XGTACX_site1436]”, the “gcPBM binding intensity (ln)” value was 11.3 ± 0.73.
On to “TATAAATATAAATATACACACATATATTTATTTATA [CACACA_site6890]”, for which the “gcPBM binding intensity (ln)” value amounted to 9.645 ± 0.078.
As to “AACAGTAACATTGAATGTACTTAATTTTAAGAAAAT [XGTACX_site2971]”, the “gcPBM binding intensity (ln)” value is 11.2 ± 0.73.
For “TTAAAATAAAGAAAATGTACATAAATTAAAATAAAG [XGTACX_site2281]”, the “gcPBM binding intensity (ln)” value came to 11.3 ± 0.71.
On to “TTTTTTTTTTTTTTTATAGTACATTACCAAAAAAAA [CACACA_negctrl_site1197]”, for which the “gcPBM binding intensity (ln)” value worked out at 11 ± 0.81.
“ATTTATTGACTATTTACACACATATTTATTATAATA [CACACA_site1624]”: the “gcPBM binding intensity (ln)” value came out at 10.2 ± 0.13.
For “CTTCCAATAAAAAATGCACACATTGAAAATATTGAA [CACACA_site2688]” the value was 9.93 ± 0.11; for “AAATTATATGAACATTGTACTTTATATATGTAAGAA [XGTACX_site1611]”, 11.2 ± 0.67; for “ACACACATATATACATGTACATATATATATATATAT [XGTACX_site451]”, 11.2 ± 0.73.
With “TGGGTAAACAGACACACACACATATAGATTTATATA [CACACA_site7026]”, the “gcPBM binding intensity (ln)” value worked out at 10.04 ± 0.064.
For “TCTTATCCATATATTACACACTATAAATAGAAATTA [CACACA_site6274]” the value was 9.89 ± 0.16; for “ATTTGTATATATTAATGTACACACATGCGTATGTTC [XGTACX_site7579]”, 11.2 ± 0.6; for “TATTTTGTTCTTTCCACACACAAATACAGATATTGT [CACACA_site6097]”, 10.15 ± 0.021.
For “AAGGTATATATAACTACACACTTATATATAATCTAA [CACACA_site92]” the value was 9.825 ± 0.049; for “TATACATATGAAAATACACACATACATACATATATA [CACACA_site8484]”, 9.915 ± 0.035; for ATTATACATATATAAGTGCAATAATGTTTTTTCCTT, 9.82 ± 0.21.
In the case of “ATATATTTTAATTGATGTACTTTTTTATGTTAATGA [XGTACX_site4316]”, the “gcPBM binding intensity (ln)” value turned out to be 11.4 ± 1.
As for “AACAGACAGAAACACACACACATATATATATATATA [CACACA_site3394]”, the “gcPBM binding intensity (ln)” value was 9.88 ± 0.12.
Regarding “TAATAAAATATGTACACACATACACCCATATATATA [CACACA_site1220]”, the “gcPBM binding intensity (ln)” value was found to be 11.5 ± 0.9.
As to “TGTAGTCTGGAGAAAAGTACATAGTATCTGGTAACC [XGTACX_site2025]”, the “gcPBM binding intensity (ln)” value was found to be 11.2 ± 0.81.
With “ATTTTCCAAAATAATTGTACAGGAAAGAAATAATTA [XGTACX_site7424]”, the “gcPBM binding intensity (ln)” value amounted to 10.9 ± 0.57.
“ATACATATTTTACATTCACACAACAAATTTATATTT [CACACA_site4700]”: the “gcPBM binding intensity (ln)” value was determined as 10.2 ± 0.11.
As for “AGGAACAAAATATACTGTACTTTATTATTTTCAAAA [XGTACX_site4421]”, the “gcPBM binding intensity (ln)” value was determined as 11.5 ± 0.86.
For the sequence “ACAAAACAAAAAAACTCACACATATACGGCATGTCA [CACACA_site5608]”, the “gcPBM binding intensity (ln)” value stood at 9.9 ± 0.29.
As for TTACTTTTAACAAATGTGCGCAGTTATCACACAGAC, the “gcPBM binding intensity (ln)” value came out at 10.6 ± 0.49.
For “TATATTTTGTTCTGTTGTACTAAAAAAATCTTTATA [XGTACX_site8372]” the value was 11.2 ± 0.71.
As for “ATTTATTTATTTATATGTACATATTTAAAGAGTTCA [XGTACX_site7631]”, the “gcPBM binding intensity (ln)” value is 11.2 ± 0.73.
As to “ATATATATATATATATGTACTAAGAATTCTTTAAAA [XGTACX_site8476]”, the “gcPBM binding intensity (ln)” value was found to be 11 ± 0.82.
For “TAATAATAAATTGGTTGTACAACCTTATACAGAATA [XGTACX_site2592]” the value was 11.5 ± 0.79; for “ACACAAAAAATAAAAATATATATATATTATATATAT [CACACA_negctrl_site1489]”, 9.49 ± 0.028; for “TAAAAAAATATATATACATGCATAGAAAAAAAAAAA [TGCATGCA_site552]”, 9.61 ± 0.18.
In the case of CATATAATTTTATGGGTGCATTTTTTTGTAAGACCA, the “gcPBM binding intensity (ln)” value is 10.6 ± 0.44.
For “TTTTTTTATTAAAAATGTACAAAAATGAAAAAATAA [XGTACX_site8279]” the value was 11 ± 0.59.
As to “CATTTTAAAGAAAATACACACAAAAATAAATATATA [CACACA_site1395]”, the “gcPBM binding intensity (ln)” value was 10.2 ± 0.11.
For “TTTTAAACAAAAATTTGTACACAATAATTAAATATA [XGTACX_site6755]” the value was 11.2 ± 0.79.
For “ATTTAATTTTTTTTTTTTTTTTTTCAATCCCCTTTT [CACACA_negctrl_site1013]” the value was 9.8 ± 0.42.
Take “ATCACATAAAATATGAATATATATTTTATATATATA [CACACA_negctrl_site340]”: the “gcPBM binding intensity (ln)” value was found to be 9.62 ± 0.014.
On to “TTTAATTTTTTTTAAACACACACATTACATTCAAAA [CACACA_site7926]”, for which the “gcPBM binding intensity (ln)” value stood at 10 ± 0.16.
